From the supplement of paper PMC7125110
This sample is rich in variants without activity.

B1: glmS ribozyme (parent)
chain: AUAAAAGCGCCAGAACUACAGAAAUGUAGUUGACGAGGAGGAGGUUUAUCGAAUUUUCGGCGGAUGCCUCCAAA

Experiments:
Conditions in all cases: with glucosamine-6-phosphate
glucosamine-6-phosphate [1] = variants of: B1; assay: self-cleavage kobs at 40 uM GlcN6P; higher = faster cleavage; RNA array
How it was run: (§1)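 Barcoded ribozyme variants on sequenced MiSeq chips were transcribed in situ by E. coli RNA polymerase and followed at 37 °C through a hybridised Cy3 probe. Glucosamine-6-phosphate at 40 μM to 10 mM in HEPES/KCl/Mg(OAc)2 buffer was flowed in, and tiles were imaged over ~14 h. Signals were normalised to baseline and to non-cleaving reference variants, and per-tile medians were fit to one- or two-exponential decays to give kobs. Weighted Michaelis–Menten fits across concentrations gave kcat and KM.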

glucosamine-6-phosphate [2] = variants of: B1; assay: self-cleavage kobs at 640 uM GlcN6P; higher = faster cleavage; RNA array
How it was run: as §1

glucosamine-6-phosphate [3] = variants of: B1; assay: self-cleavage kobs at 160 uM GlcN6P; higher = faster cleavage; RNA array
How it was run: as §1

glucosamine-6-phosphate [4] = variants of: B1; assay: self-cleavage kobs at 2500 uM GlcN6P; higher = faster cleavage; RNA array
How it was run: as §1

glucosamine-6-phosphate [5] = variants of: B1; assay: self-cleavage kobs at 10000 uM GlcN6P; higher = faster cleavage; RNA array
How it was run: as §1

AUAAAAGCCCCAGAACUACAGAAAUGUAGUUGACGAGGAGGAGGUUUAUCGAAUUUUCGGCGAAUGCCUACAAA
< 1e-05 s⁻¹: self-cleavage kobs at 40 uM GlcN6P (glucosamine-6-phosphate [1]) | self-cleavage kobs at 640 uM GlcN6P (glucosamine-6-phosphate [2]) | self-cleavage kobs at 160 uM GlcN6P (glucosamine-6-phosphate [3]) | self-cleavage kobs at 2500 uM GlcN6P (glucosamine-6-phosphate [4]) | self-cleavage kobs at 10000 uM GlcN6P (glucosamine-6-phosphate [5])

AUAAAAGCCCCAGAACUACAGAAAUGUAGUUGACGAGGAAGAGGUUUAUAGAAUUUUCGGCGGAUGCCUCCAAA
< 1e-05 s⁻¹: self-cleavage kobs at 40 uM GlcN6P (glucosamine-6-phosphate [1])

AUAAAAGCUCCUGAACUACAGAAAUGUAGUUGACGAGGAGGAGGUUUAUCGAAUUUUCGGCGGAUGCCUCCAAA
< 1e-05 s⁻¹: self-cleavage kobs at 40 uM GlcN6P (glucosamine-6-phosphate [1]) | self-cleavage kobs at 640 uM GlcN6P (glucosamine-6-phosphate [2]) | self-cleavage kobs at 160 uM GlcN6P (glucosamine-6-phosphate [3]) | self-cleavage kobs at 2500 uM GlcN6P (glucosamine-6-phosphate [4])

AUAAAAGCCCCAGAACUACAGAAAUGUAUUUGACGAGGAGGAGGUUUAUCGAAUUUUCGGCGGAUGCCUCCAAA
< 1e-05 s⁻¹: self-cleavage kobs at 40 uM GlcN6P (glucosamine-6-phosphate [1]) | self-cleavage kobs at 640 uM GlcN6P (glucosamine-6-phosphate [2]) | self-cleavage kobs at 160 uM GlcN6P (glucosamine-6-phosphate [3])

AUAAAAGCCCCAGAACUACAGAAAUGUACUUGACGAGGAGGAGGUUUAUCGAAUUUUCGGCGGAUGCCUCCAAA
< 1e-05 s⁻¹: self-cleavage kobs at 40 uM GlcN6P (glucosamine-6-phosphate [1]) | self-cleavage kobs at 160 uM GlcN6P (glucosamine-6-phosphate [3]) | self-cleavage kobs at 2500 uM GlcN6P (glucosamine-6-phosphate [4]) | self-cleavage kobs at 10000 uM GlcN6P (glucosamine-6-phosphate [5])

AUAAAAGCCCCAGAACUACAGAAAUGUAGUUGACGAGGAGGAGGUAUAUCAAAUUUUCGGCGGAUGCCUCCAAA
< 1e-05 s⁻¹: self-cleavage kobs at 40 uM GlcN6P (glucosamine-6-phosphate [1])

AUAAAAGCCCCAGAACUACAGAAAUGUAGUUGACGAGGAGGAGGUUUAUCGAAUUUUCGGCGGAUGCAUCCAAA
< 1e-05 s⁻¹: self-cleavage kobs at 40 uM GlcN6P (glucosamine-6-phosphate [1]) | self-cleavage kobs at 640 uM GlcN6P (glucosamine-6-phosphate [2]) | self-cleavage kobs at 160 uM GlcN6P (glucosamine-6-phosphate [3]) | self-cleavage kobs at 10000 uM GlcN6P (glucosamine-6-phosphate [5])

AUAAAAGCCCCAGAACUACAGAAAUGUAGGUGACGAGGAGCAGGUUGAUCGAAUUUUCGGCGGAGGCCUCCAAA
< 1e-05 s⁻¹: self-cleavage kobs at 40 uM GlcN6P (glucosamine-6-phosphate [1]) | self-cleavage kobs at 10000 uM GlcN6P (glucosamine-6-phosphate [5])

AUAAAAGCCCCAGAACUACAGAAAUGUAGUGGACGAGGAGGAGGUUUAUCGAACUUUCGGCGGAUGCCUCCAAA
< 1e-05 s⁻¹: self-cleavage kobs at 40 uM GlcN6P (glucosamine-6-phosphate [1])

AUAAAAGCCCCACAACUACAGAAAUGUAGUUGACGAGGAGGAGGUUUAUCGAAUUUUCGGCGGAUGCCUCCAAA
< 1e-05 s⁻¹: self-cleavage kobs at 40 uM GlcN6P (glucosamine-6-phosphate [1]) | self-cleavage kobs at 640 uM GlcN6P (glucosamine-6-phosphate [2]) | self-cleavage kobs at 160 uM GlcN6P (glucosamine-6-phosphate [3]) | self-cleavage kobs at 2500 uM GlcN6P (glucosamine-6-phosphate [4]) | self-cleavage kobs at 10000 uM GlcN6P (glucosamine-6-phosphate [5])

AUAAAAGCCCCAUAACUACAGAAAUGUAGUUGACGAGGAGGAGGUUUAUCGAAUUUUCGGCGGAUGCCUCCAAA
< 1e-05 s⁻¹: self-cleavage kobs at 40 uM GlcN6P (glucosamine-6-phosphate [1])

AUAAAAGCCCCAGAACUACAGAAAUGUAGUUGACGAGGAGGAUGUUUAUCGAAUUUUCGGCGGAUGCCUCCAAA
< 1e-05 s⁻¹: self-cleavage kobs at 40 uM GlcN6P (glucosamine-6-phosphate [1]) | self-cleavage kobs at 640 uM GlcN6P (glucosamine-6-phosphate [2]) | self-cleavage kobs at 160 uM GlcN6P (glucosamine-6-phosphate [3]) | self-cleavage kobs at 10000 uM GlcN6P (glucosamine-6-phosphate [5])

AUAAAAGCUCCCGAACUACAGAAAUGUAGUUGACGUGGAGGAGGUUUAUCGAAUUUACGGCGGAUGCAUCCAAA
< 1e-05 s⁻¹: self-cleavage kobs at 40 uM GlcN6P (glucosamine-6-phosphate [1]) | self-cleavage kobs at 640 uM GlcN6P (glucosamine-6-phosphate [2]) | self-cleavage kobs at 2500 uM GlcN6P (glucosamine-6-phosphate [4]) | self-cleavage kobs at 10000 uM GlcN6P (glucosamine-6-phosphate [5])

AUAAAAGCCCCAGAACUACAGAAAUGUAGUUGACGAGGAGGAGGUUUAUCGAAUUUUCGGCUGAUGCCUCCAAA
< 1e-05 s⁻¹: self-cleavage kobs at 40 uM GlcN6P (glucosamine-6-phosphate [1]) | self-cleavage kobs at 640 uM GlcN6P (glucosamine-6-phosphate [2]) | self-cleavage kobs at 160 uM GlcN6P (glucosamine-6-phosphate [3]) | self-cleavage kobs at 10000 uM GlcN6P (glucosamine-6-phosphate [5])

AUAAAAGCCCCAGAACUACAGAAAUGUAGUUGACGAGGAGGAGGUUUAUCGAAUCUUCGGCGGAUGCCUCCAAA
< 1e-05 s⁻¹: self-cleavage kobs at 40 uM GlcN6P (glucosamine-6-phosphate [1]) | self-cleavage kobs at 640 uM GlcN6P (glucosamine-6-phosphate [2])

AUAAAAGCCCCAGAACUACAGAAAUGUAGCUGACGAGGAGGAGGUUUAUCGAAUUUUCGGCGGAUGCCUCCAAA
< 1e-05 s⁻¹: self-cleavage kobs at 40 uM GlcN6P (glucosamine-6-phosphate [1]) | self-cleavage kobs at 640 uM GlcN6P (glucosamine-6-phosphate [2]) | self-cleavage kobs at 160 uM GlcN6P (glucosamine-6-phosphate [3]) | self-cleavage kobs at 10000 uM GlcN6P (glucosamine-6-phosphate [5])

AUAAAAGCCCCAGAACUACAGAAAUGUAGUUGACGAGGAGGAGGUUUAUCGAAUUUUCGGCGGAGGCCUCCAAA
< 1e-05 s⁻¹: self-cleavage kobs at 40 uM GlcN6P (glucosamine-6-phosphate [1]) | self-cleavage kobs at 640 uM GlcN6P (glucosamine-6-phosphate [2]) | self-cleavage kobs at 160 uM GlcN6P (glucosamine-6-phosphate [3]) | self-cleavage kobs at 2500 uM GlcN6P (glucosamine-6-phosphate [4]) | self-cleavage kobs at 10000 uM GlcN6P (glucosamine-6-phosphate [5])

AUAAAAGCCCCAUAACUACAGAAAUGUAGUUGACGAGGAGUAGGUUUAUCGAAUUUUCGGCGUAUGCCUCCAAA
< 1e-05 s⁻¹: self-cleavage kobs at 40 uM GlcN6P (glucosamine-6-phosphate [1]) | self-cleavage kobs at 10000 uM GlcN6P (glucosamine-6-phosphate [5])

AUAAAAGCCCCAGAACUACAGAAAUGUAGUUGACGAGGAGGAGGUUUAUCAAAUUUUCGGCGGAUGCCUCCAAA
< 1e-05 s⁻¹: self-cleavage kobs at 40 uM GlcN6P (glucosamine-6-phosphate [1]) | self-cleavage kobs at 10000 uM GlcN6P (glucosamine-6-phosphate [5])

AUAAAAGCCCCAGAACUACAGAAAUGUAGUUGACGAGGAGGAGGUUUAUCGAAUUUUCGGCGGAUGCCUCAAAA
< 1e-05 s⁻¹: self-cleavage kobs at 40 uM GlcN6P (glucosamine-6-phosphate [1]) | self-cleavage kobs at 10000 uM GlcN6P (glucosamine-6-phosphate [5])

AUAAAAGCUCCAGGACUACAGAAAUGUAGUUGACGAGGAGGAGGUUUAUCGAAUUUUCCGCGGAUGCUUCCAAA
< 1e-05 s⁻¹: self-cleavage kobs at 40 uM GlcN6P (glucosamine-6-phosphate [1]) | self-cleavage kobs at 10000 uM GlcN6P (glucosamine-6-phosphate [5])

AUAAAAGCCCCAGAACUACAGAAAUGUAGUCGACGAGGAGUAGGUUAAUCGAAUUUUCGGCGGAUGCCUCCAAA
< 1e-05 s⁻¹: self-cleavage kobs at 40 uM GlcN6P (glucosamine-6-phosphate [1]) | self-cleavage kobs at 640 uM GlcN6P (glucosamine-6-phosphate [2]) | self-cleavage kobs at 160 uM GlcN6P (glucosamine-6-phosphate [3]) | self-cleavage kobs at 10000 uM GlcN6P (glucosamine-6-phosphate [5])

AUAAAAGCCCCAGAACUACAGAAAUGUAGUUGACGAGGAGGAGGUUUAUCGAAUUUCCGGCGGAUGCCUCCAAA
< 1e-05 s⁻¹: self-cleavage kobs at 40 uM GlcN6P (glucosamine-6-phosphate [1]) | self-cleavage kobs at 640 uM GlcN6P (glucosamine-6-phosphate [2]) | self-cleavage kobs at 160 uM GlcN6P (glucosamine-6-phosphate [3]) | self-cleavage kobs at 2500 uM GlcN6P (glucosamine-6-phosphate [4]) | self-cleavage kobs at 10000 uM GlcN6P (glucosamine-6-phosphate [5])

AUAAAAGCCCCAGAACUACAGAAAUGUAGUUGACGAGGAGGAGGUAUAUCGAAUUUUCGGCGGAUGCCUCCAAA
< 1e-05 s⁻¹: self-cleavage kobs at 40 uM GlcN6P (glucosamine-6-phosphate [1]) | self-cleavage kobs at 640 uM GlcN6P (glucosamine-6-phosphate [2]) | self-cleavage kobs at 160 uM GlcN6P (glucosamine-6-phosphate [3]) | self-cleavage kobs at 10000 uM GlcN6P (glucosamine-6-phosphate [5])
